Measurements taken from the supplement of paper PMC4967469.
Lines with a small IC50 respond at low doses; fits outside the tested doses are given as limits. AUC sums up the same curve from the lowest dose to the 256-fold higher top dose; it is 1 without any effect and falls as sensitivity rises. For part of these data: The top dose, if marked as inferred, was calculated from the reported fits. For part of these data: An entry number marks a drug with two screens in the source, which often give different values.

Columns and labels:
Assay in all cases: Viability of human cancer cell lines after 72 h of drug (GDSC screen)
SB-715992 = compound: Cc1ccc(C(=O)N(CCCN)[C@@H](c2nc3cc(Cl)ccc3c(=O)n2Cc2ccccc2)C(C)C)cc1 [SB-715992]; details: top dose 0.128 µM; top dose inferred
Protocol: (§1)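 Human cancer cell lines in 384-well plates, medium with 10% serum, drug for 72 h over a 256-fold dose range (nine 2-fold or five 4-fold steps up to the top dose). Adherent lines were fixed and stained with the nucleic acid dye Syto60, suspension lines read with resazurin; signal relative to control wells, capped at 0 and 100%. One two-parameter sigmoid per drug and line, fitted in a mixed model over all curves with the slope shared within a line.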

CGP-60474 = compound: OCCCNc1cc(-c2ccnc(Nc3cccc(Cl)c3)n2)ccn1 [CGP-60474]; details: top dose 0.256 µM; top dose inferred
Protocol: as §1

FTI-277 = compound: COC(=O)[C@H](CCSC)NC(=O)c1ccc(NC[C@@H](N)CS)cc1-c1ccccc1 [FTI-277]; details: top dose 1.024 µM; top dose inferred
Protocol: as §1

Belinostat = compound: O=C(/C=C/c1cccc(S(=O)(=O)Nc2ccccc2)c1)NO [Belinostat]; details: top dose 20 µM; top dose inferred
Protocol: as §1

JQ1 = compound: Cc1sc2c(c1C)C(c1ccc(Cl)cc1)=N[C@@H](CC(=O)OC(C)(C)C)c1nnc(C)n1-2 [JQ1]
Protocol: as §1

NVP-TAE684 = compound: COc1cc(N2CCC(N3CCN(C)CC3)CC2)ccc1Nc1ncc(Cl)c(Nc2ccccc2S(=O)(=O)C(C)C)n1 [NVP-TAE684]; details: top dose 2 µM
Protocol: as §1

AMG-706 = compound: CC1(C)CNc2cc(NC(=O)c3cccnc3NCc3ccncc3)ccc21 [AMG-706]; details: top dose 2 µM; top dose inferred
Protocol: as §1

JNJ-26854165 = compound: c1ccc2c(CCNc3ccc(Nc4ccncc4)cc3)c[nH]c2c1 [JNJ-26854165]; details: top dose 10 µM
Protocol: as §1

Cyclopamine = compound: CC1=C2C[C@H]3[C@@H](CC=C4C[C@@H](O)CC[C@@]43C)[C@@H]2CC[C@]12O[C@@H]1C[C@H](C)CN[C@H]1[C@H]2C [Cyclopamine]; details: top dose 16 µM; top dose inferred
Protocol: as §1

JNK Inhibitor VIII = compound: CCOc1nc(NC(=O)Cc2cc(OC)ccc2OC)cc(N)c1C#N [JNK Inhibitor VIII]; details: top dose 10 µM; top dose inferred
Protocol: as §1

OSI-906 = compound: C[C@]1(O)C[C@@H](c2nc(-c3ccc4ccc(-c5ccccc5)nc4c3)c3c(N)nccn32)C1 [OSI-906]; details: top dose 2.56 µM; top dose inferred
Protocol: as §1

NSC-207895 = compound: CN1CCN(c2ccc([N+](=O)[O-])c3no[n+]([O-])c23)CC1 [NSC-207895]; details: top dose 20 µM; top dose inferred
Protocol: as §1

YM155 = compound: COCC[n+]1c2c(n(Cc3cnccn3)c1C)C(=O)c1ccccc1C2=O [YM155]; details: top dose 5.12 µM
Protocol: as §1

[1] = top dose 1 µM, screen: GDSC drug entry 1218, top dose inferred
[2] = top dose 2.56 µM, screen: GDSC drug entry 163

Cell Line	AUC (SB-715992)	IC50 (SB-715992) [µM]	AUC (CGP-60474)	IC50 (CGP-60474) [µM]	AUC (FTI-277)	IC50 (FTI-277) [µM]	AUC (Belinostat)	IC50 (Belinostat) [µM]	AUC (JQ1; [1])	IC50 (JQ1; [1]) [µM]	AUC (JQ1; [2])	IC50 (JQ1; [2]) [µM]	AUC (NVP-TAE684)	IC50 (NVP-TAE684) [µM]	AUC (AMG-706)	IC50 (AMG-706) [µM]	AUC (JNJ-26854165)	IC50 (JNJ-26854165) [µM]	AUC (Cyclopamine)	IC50 (Cyclopamine) [µM]	AUC (JNK Inhibitor VIII)	IC50 (JNK Inhibitor VIII) [µM]	AUC (OSI-906)	IC50 (OSI-906) [µM]	AUC (NSC-207895)	IC50 (NSC-207895) [µM]	AUC (YM155)	IC50 (YM155) [µM]
SR (lymphoid neoplasm, suspension)	0.48	0.0071	0.558	0.0226	0.911	> 1.02	0.043	< 0.0781	0.976	> 1	0.846	1.59	0.077	< 0.00781	0.988	> 2	0.711	2.29	0.843	9.74	0.981	> 10	0.959	> 2.56	0.777	7.2	0.021	< 0.02
SU-DHL-8 (B-cell lymphoma, suspension)	0.73	0.0341	0.54	0.0204	0.984	> 1.02	0.075	< 0.0781	0.984	> 1	0.601	0.297	0.948	> 2	0.988	> 2	0.988	> 10	0.988	> 16	0.988	> 10	0.97	> 2.56	0.89	> 20	0.022	< 0.02
SW954 (urogenital system, adherent)	0.488	0.00742	0.638	0.0387	0.949	> 1.02	0.258	0.25	–	–	0.573	0.254	0.67	0.373	0.965	> 2	0.841	7.08	0.985	> 16	0.923	> 10	0.877	> 2.56	0.889	> 20	0.042	< 0.02
TE-10 (oesophagus, adherent)	0.555	0.0112	0.651	0.0416	0.956	> 1.02	0.987	> 20	0.984	> 1	0.607	0.312	0.786	0.844	0.988	> 2	0.911	> 10	0.987	> 16	0.988	> 10	0.833	1.61	0.976	> 20	0.793	2.29
TUR (B-cell lymphoma, suspension)	0.673	0.0232	0.96	> 0.256	0.985	> 1.02	0.274	0.303	0.964	> 1	0.861	1.9	0.973	> 2	0.988	> 2	0.902	> 10	0.984	> 16	0.987	> 10	0.989	> 2.56	0.948	> 20	0.071	< 0.02
